In publication PMC12040169 (PLOS Biology, 2025):
This is one part of the list.

system: T1, C. trachomatis L2/434/Bu expressing GFP (CTL2-GFP); design: species or system HeLa; C. trachomatis total inclusion area by high-content imaging, normalised to DMSO; conditions: total inclusion area; 28.5 h, 10 µM; inhibitor
T1 construct: L2/434/Bu GFP intracellular growth in HeLa cells
Procedure, shortened: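 High-content imaging followed the bulk GFP/resorufin measurement: fixed, Hoechst-stained cells were scored for GFP inclusions and host nuclei per well. Total inclusion area and count served as growth proxies, nuclei number as the viability proxy. MIC calculation matched the bulk assay.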

Row | SMILES | % of control remaining
1 | COCCc1nsc(N2CCCC(c3nccs3)C2)n1 (stereo not shown) [CBK305110] | 69.2981
2 | CN(CCN1CCCCC1)C(=O)c1cc2c([nH]1)CCCC2 [CBK281836] | 103.708
3 | Cc1cccc(-n2cnc3cc(C(=O)NCc4cccnc4)ccc32)c1 [CBK294455] | 107.223
4 | O=C1CC(c2ccc(C(=O)O)cc2)c2sccc2N1 (stereo not shown) [CBK287119] | 96.163
5 | CCCNS(=O)(=O)c1ccc(OCC(=O)N2CCN(C)CC2)c(C)c1 [CBK270169] | 82.7723
6 | O=C1NC/C=C/CC2(CCN(C(=O)CCc3cccnc3)CC2)C(=O)NCCOc2ccccc21 [CBK292007] | 94.7262
7 | Nc1ccc(Sc2nc3ccccc3nc2C(F)(F)F)cc1 [CBK089560] | 90.4739
8 | Cc1ccccc1-n1ncc2c(=O)n(CC(=O)Nc3ccccc3)cnc21 [CBK287689] | 73.1086
9 | O=C(COc1ccccc1)Nc1ccccc1CO [CBK263596] | 82.4776
10 | O=c1[nH]cnc2c1cnn2Cc1ccccc1Cl [CBK287999] | 58.5045
11 | COc1ccc2[nH]c(=O)c(CNc3ccc(CCc4nc5ccccc5n4C)cc3)cc2c1 [CBK286162] | 82.7447
12 | O=C(NC1CC1)c1ccc(-n2cccn2)c(C#Cc2cccnc2)c1 [CBK282449] | 125.305
13 | O=C(O)C1CCCCN1Cc1ccccc1 (stereo not shown) [CBK261687] | 84.1021
14 | Cc1cc(N2CCC(N(C)C)CC2)nc(N)n1 [CBK167267] | 80.6651
15 | CS(=O)(=O)N(CC(=O)O)c1ccc2c(c1)OCCO2 [CBK287151] | 111.307
16 | Cn1c(C(=O)O)cc2cc(Oc3ccccc3)ccc21 [CBK286873] | 95.5244
17 | CCC1CCCCN1C(=O)c1cc(C)ccc1F (stereo not shown) [CBK082754] | 114.781
18 | O=C(Cn1c(=O)oc2ccccc21)Nc1ccc(S(=O)(=O)Nc2nccs2)cc1 [CBK267686] | 89.3635
19 | CC(C)NC(=O)NC(=O)C1CCN(CCOc2ccc(Cl)cc2Cl)CC1 [CBK034949] | 91.4523
20 | O=C(CSc1nnc(-c2cccnc2)n1-c1ccc(Br)cc1)Nc1ccc(F)cc1 [CBK266174] | 108.93
21 | CC(=O)c1ccc(-c2nccnc2NCC(O)COc2ccccc2)s1 (stereo not shown) [CBK036976] | 123.964
22 | O=C(CSc1nc2ccccc2c(=O)[nH]1)NCCO [CBK266469] | 94.9342
23 | CN(C)CCN(C)C(=O)c1ccc(-c2cc(C(F)(F)F)cc(C(F)(F)F)c2)nc1N(C)C [CBK106069] | 84.3788
24 | O=C1CCC(=O)N1CCN1C(=O)C2(CC(=O)N(CCC(F)(F)F)C2=O)c2ccccc21 (stereo not shown) [CBK076031] | 98.9763
25 | CCN1CCc2cc(CN3CCCC(Cn4ccnc4C)C3)ccc21 (stereo not shown) [CBK281965] | 93.0198
26 | CNC(=O)CN1C[C@H](NC(=O)c2cccc3c2NCCC3)[C@@H](C(C)C)C1 [CBK307073] | 94.7563

Row | SMILES | % of control remaining
27 | CCN(CCO)c1ccc(Nc2nc(-c3cccc4ccccc34)cn3ccnc23)cc1 [CBK066243] | 109.599
28 | O=c1ccc(-c2ccc(F)cc2)nn1CC1CCNCC1 [CBK284216] | 90.4472
29 | O=C(Nc1ccccc1)OC1CCCCC1 [CBK015569] | 55.2213
30 | CC(=O)Cn1cnc2c(cnn2-c2cccc(Cl)c2)c1=O [CBK287692] | 98.3291
31 | CC(C)C(=O)N1CCN(c2ccccc2NC(=O)c2ccc(N3CCCCC3)c([N+](=O)[O-])c2)CC1 [CBK267609] | 106.552
32 | O=C(O)c1ccccc1NS(=O)(=O)/C=C/c1ccccc1 [CBK042363] | 111.031
33 | O=C(CCSc1c(Cl)cccc1[N+](=O)[O-])Nc1ccc(Br)c2cccnc12 [CBK266777] | 96.4045
34 | CCOc1ncccc1C(=O)OCc1cc2ccc(OC)cc2nc1Cl [CBK295289] | 93.8307
35 | O=C(O)c1ccc(CN2C[C@H](O)C[C@H]2c2nc(-c3ccc(F)cc3)no2)cc1 [CBK288870] | 108.5
36 | N#CCCCN1CCC(Oc2nccnc2OCc2cccc(Br)c2)CC1 [CBK153631] | 93.134
37 | O=C(NC1CC1)N1CCN(CCCOc2ccc(F)cc2)CC1 [CBK025077C] | 3.1399
38 | Cn1c(=O)c(C(=O)Nc2ccc(OCc3ccccc3F)cc2)nc2ccccc21 [CBK285820] | 96.3629
39 | O=C(O)CC(C(=O)OC1CCCCC1)N1CCOCC1 (stereo not shown) [CBK265970] | 135.835
40 | O=C(Nc1ccc(=O)n2c1[C@@H]1C[C@@H](CN(C(=O)COc3ccccc3)C1)C2)c1cncnc1 [CBK288712] | 107.649
41 | COc1ccc(-n2ncc3c2CC(C)(C)CC3NS(C)(=O)=O)cc1 (stereo not shown) [CBK306759] | 85.7393
42 | O=C(NCCn1nc2c(cc1=O)CCCCC2)c1ccccc1 [CBK283278] | 115.025
43 | COc1cccc(C(=O)NCCC(=O)N2CCc3sccc3C2)c1 [CBK305376] | 55.9983
44 | COc1ccc(Nc2nc(-c3cc(C(C)C)ccc3OC)cnc2N)c(C)c1 [CBK064098] | 109.411
45 | OCc1ccccc1-c1nccnc1NCc1ccco1 [CBK037098] | 105.929
46 | O=C1CCc2c(Cc3c(Cl)cccc3Cl)c(O)nn21 [CBK083470] | 84.0242
47 | Cc1sc2c(C3CCN(C(=O)C4CC4)CC3)nc(C)n2c1C [CBK285298] | 83.1726
48 | COc1ccccc1NC(=O)C(c1ccccc1)N1CCOCC1 (stereo not shown) [CBK269561] | 86.2026
49 | COc1ccc(-c2c[nH]c([C@@H]3COCCN3Cc3ccc(C(=O)O)cc3)n2)cc1 [CBK289305] | 120.53
50 | CCN(CC)CCNc1c(N)c(=O)oc2ccccc12 [CBK261469] | 107.619
51 | O=C(O)c1ccc(CN2C[C@H](O)C[C@H]2c2nc(-c3ccccn3)no2)cc1 [CBK288869] | 116.525
52 | CSc1nnc2c(n1)[nH]c1ccccc12 [CBK025967] | 111.796
